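All cell lines were grown in 96-well plates and treated with compound for 48 hours. GI50 = concentration required for 50% inhibition of growth. Definition used: TGI = concentration required for complete inhibition of growth.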
Tested on: NCI-H322M lung
Assay: DTP human tumour cell line panel, 48 h

Structure (SMILES)	GI50 [µM]	TGI [µM]
COc1ccc(C(=O)/C=C/c2cccc(Cl)c2)cc1S(N)(=O)=O	2.15	9.07
COc1ccc2[nH]c(O)c(N=Nc3nc(-c4ccccc4)cs3)c2c1	3.99	23.4
O=C(Nc1ccc(F)cc1)Nc1nc2ccc([N+](=O)[O-])cc2s1	3.25	11.4
O=C(NO)c1ccc(CNC(=O)[C@H]2Cc3c([nH]c4ccccc34)[C@H](c3ccccc3)N2)cc1	4.78	> 23.7
Cn1cc(-c2cc3nc(-c4c[nH]c5ccc(Cl)cc45)cc(N)n3n2)c2ccccc21	1.53	3.34

Reference: PubChem BioAssay (NCI)
